To fix the notation:
B1: TEV protease; numbered along this chain (parent)
chain: MGESLFKGPRDYNPISSSICHLTNESDGHTTSLYGIGFGPFIITNKHLFRRNNGTLVVQSLHGVFKVKDTTTLQQHLVDGRDMIIIRMPKDFPPFPQKLKFREPQREERICLVTTNFQTKSMSSMVSDTSCTFPSGDGIFWKHWIQTKDGQCGSPLVSTRDGFIVGIHSASNFTNTNNYFTSVPKNFMELLTNQEAQQWVSGWRLNADSVLWGGHKVFMVKPEEPFQPVKEATQL

This is one part of the list. The full chains were built here from the parent and the listed change. Inactive controls read about 0.05.
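Note: Bxb1 expression induced with 0.2% (w/v) L-rhamnose at OD600 near 0.5, cultures sampled hourly, flipped fraction per protease–substrate barcode pair counted by paired-end Illumina sequencing.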

In the test the parent is B1. Briefly: raw area under fraction-flipped curve 0-4 h after induction (AUC4h, not background-subtracted), DNA-recorder readout of cleavage of the substrate (dimensionless); higher = more cleavage of the substrate by the protease variant. To be noted: temperature: 34 °C; time window: 0-4 h after rhamnose induction.
Consider MGESLFKGPRDYNPISSSICHLTNESDGHTTSLYGIGFGPFIITNKHLFRRNNGTLVVQSLHGVFKVKDTTTLQQHLVDGRDMIIIRMPKDFPPFPQKLKFREPQREERICLVTTNFQTKSMSSMVSDTSCTFPSGDGIFWKHWIQTKDGQCGSPLVSTRDGFIVGIHSASNFTNTNNYFTSVPKNFMELLTNQEAQQSVSGWRLNADSVLWGGHKVFMVKPEEPFQPVKEATQL [W199S], for which the “area with substrate HNLYFQS” value was determined as 0.0477, the “area with substrate KNLYFQS” value was 0.0697, the “area with substrate LNLYFQS” value was determined as 0.0478 and the “area with substrate PNLYFQS” value was 0.061. Further, the “area with substrate SNLYFQS” value was 0.0954 and the “area with substrate YNLYFQS” value came to 0.0598.

On to MGESLFKGPRDYNPISSSICHLTNESDGHTTSLYGIGFGPFIITNKHLFRRNNGTLVVQSLHGVFKVKDTTTLQQHLVDGRDMIIIRMPKDFPPFPQKLKFREPQREERICLVTTNFQTKSMSSMVSDTSCTFPSGDGIFWKHWIQTKDGQCGSPLVSTRDGFIVGIHSASNFTNTNNYFTSVPKNFMELLTNQEAQQWVSGWRLNADSVLWGGSKVFMVKPEEPFQPVKEATQL [H215S], for which the “area with substrate INLYFQS” value was determined as 0.0674, the “area with substrate VNLYFQS” value amounted to 0.0616 and the “area with substrate WNLYFQS” value came to 0.0496.

In the case of MGESLFKGPRDYNPISSSICHLTNESDGHTTSLYGIGFGPFIITNKHLFRRNNGTLVVQSLHGVFKVKDTTTLQQHLVDGRDMIIIRMPKDFPPFPQKLKFREPQREERICLVTTNFQTKSMSSMVSDTSCTFPSGDGIFWKHWIQTKDGQCGSPLVSTRDGFIVGIHSASNFTNTNNYFTSVPKNFMELLTNQEAQQWVSGWRLNADAVLWGGHKVFMVKPEEPFQPVKEATQL [S209A], the “area with substrate INLYFQS” value turned out to be 0.0477, the “area with substrate KNLYFQS” value was 0.0684, the “area with substrate LNLYFQS” value turned out to be 0.0726 and the “area with substrate SNLYFQS” value came to 0.0593. Besides, the “area with substrate TNLYFQS” value amounted to 0.0758 and the “area with substrate YNLYFQS” value stood at 0.0622.

MGESLFKGPRDYNPISSSICHLTNESDGHTTSLYGIGFGPFIITNKHLFRRNNGTLVVQSLHGVFKVKDTTTLQQHLVDGRDMIIIRMPKDFPPFPQKLKFREPQREERICLVTTNFQTKSMSSMVSDTSCTFPSGDGIFWKHWIQTKDGQCGSPLVSTRDGFIVGIHSASNFTNTNNYFTSVPKNFMELLTNQEAQQWVSGWRLNADHVLWGGHKVFMVKPEEPFQPVKEATQL [S209H]: the “area with substrate HNLYFQS” value worked out at 0.0491, the “area with substrate KNLYFQS” value is 0.068, the “area with substrate LNLYFQS” value came to 0.0674 and the “area with substrate PNLYFQS” value was 0.076. In addition, the “area with substrate SNLYFQS” value is 0.0503.

With MGESLFKGPRDYNPISSSICHLTNESDGHTTSLYGIGFGPFIITNKHLFRRNNGTLVVQSLHGVFKVKDTTTLQQHLVDGRDMIIIRMPKDFPPFPQKLKIREPQREERICLVTTNFQTKSMSSMVSDTSCTFPSGDGIFWKHWIQTKDGQCGSPLVSTRDGFIVGIHSASNFTNTNNYFTSVPKNFMELLTNQEAQQWVSGWRLNADSVLWGGHKVFMVKPEEPFQPVKEATQL [F101I], the “area with substrate HNLYFQS” value worked out at 0.0637, the “area with substrate INLYFQS” value was found to be 0.0512, the “area with substrate MNLYFQS” value is 0.0448 and the “area with substrate NNLYFQS” value came out at 0.0565. The “area with substrate RNLYFQS” value was 0.0606 and the “area with substrate TNLYFQS” value is 0.0522.

On to MGESLFKGPRDYNPISSSICHLTNESDGHTTSLYGIGFGPFIITNKHLFRRNNGTLVVQSLHGVFKVKDTTTLQQHLVDGRDMIIIRMPKDFPPFPQKLKFREPQREERICLVTTNFQTKSMSSMVSDTSCTFPSGDGISWKHWIQTKDGQCGSPLVSTRDGFIVGIHSASNFTNTNNYFTSVPKNFMELLTNQEAQQWVSGWRLNADSVLWGGHKVFMVKPEEPFQPVKEATQL [F140S], for which the “area with substrate HNLYFQS” value was 0.0459 and the “area with substrate SNLYFQS” value was found to be 0.059.

Regarding MGESLFKGPRDYNPISSSICHLTNESDGHTTSLYGIGFGPFIITNKHLFRRNNGTLVVQSLHGVFKVKDTTTLQQHLVDGRDMIIIRMPKDFPPFPQKLKFREPQREERICLVTTNFQTKSMSSMVSDTSCTFPSGDGIFWKHWIQTKDGQCGSPLVSTRDGFIVGIHSASNFTNTNNYFTSVPKNFMELLTNQEAQQWVSGWRLNADSVLWGGHKVFMVKPEEPFQPVKEAYQL [T233Y], the “area with substrate INLYFQS” value came out at 0.0584, the “area with substrate PNLYFQS” value came to 0.0536, the “area with substrate SNLYFQS” value was 0.0642 and the “area with substrate TNLYFQS” value amounted to 0.0837. Besides, the “area with substrate WNLYFQS” value came out at 0.0772.

MGESLFKGPRDYNPISSSICHLTNESDGHTTSLYGIGFGPFIITNKHLFRRNNGTLVVQSLHGVFKVKDTTTLQQHLVDGRDMIIIRMCKDFPPFPQKLKFREPQREERICLVTTNFQTKSMSSMVSDTSCTFPSGDGIFWKHWIQTKDGQCGSPLVSTRDGFIVGIHSASNFTNTNNYFTSVPKNFMELLTNQEAQQWVSGWRLNADSVLWGGHKVFMVKPEEPFQPVKEATQL [P89C]: the “area with substrate INLYFQS” value amounted to 0.0527 and the “area with substrate WNLYFQS” value is 0.0645.

Regarding MGESLFKGPRDYNPISSSICHLTNESDGHDTSLYGIGFGPFIITNKHLFRRNNGTLVVQSLHGVFKVKDTTTLQQHLVDGRDMIIIRMPKDFPPFPQKLKFREPQREERICLVTTNFQTKSMSSMVSDTSCTFPSGDGIFWKHWIQTKDGQCGSPLVSTRDGFIVGIHSASNFTNTNNYFTSVPKNFMELLTNQEAQQWVSGWRLNADSVLWGGHKVFMVKPEEPFQPVKEATQL [T30D], the “area with substrate HNLYFQS” value stood at 0.0634, the “area with substrate KNLYFQS” value came to 0.075, the “area with substrate LNLYFQS” value stood at 0.0848 and the “area with substrate MNLYFQS” value is 0.0567. The “area with substrate NNLYFQS” value worked out at 0.069, the “area with substrate PNLYFQS” value was found to be 0.0675, the “area with substrate QNLYFQS” value worked out at 0.0779 and the “area with substrate RNLYFQS” value came out at 0.0424. For the same variant, the “area with substrate SNLYFQS” value stood at 0.0583, the “area with substrate WNLYFQS” value was 0.05 and the “area with substrate YNLYFQS” value is 0.0504.

MGESLFKGPRDYNPISSSICHLTNESDGHTTSLYGIGFGPFIITNKHLFRRNNGTLVVQSLHGVFKVKDTTTLQQHLVDLRDMIIIRMPKDFPPFPQKLKFREPQREERICLVTTNFQTKSMSSMVSDTSCTFPSGDGIFWKHWIQTKDGQCGSPLVSTRDGFIVGIHSASNFTNTNNYFTSVPKNFMELLTNQEAQQWVSGWRLNADSVLWGGHKVFMVKPEEPFQPVKEATQL [G80L]: the “area with substrate HNLYFQS” value came to 0.0568, the “area with substrate PNLYFQS” value stood at 0.0631, the “area with substrate VNLYFQS” value was 0.0527 and the “area with substrate YNLYFQS” value was 0.0729.

Take MGESLFKGPRDYNPISSSICHLTNESDGHTTSLYGIGFGPFIITNKHLFRRNNGTLVVQSLHGVFKVKDTTTLQQHLVDGRDMIIIRMPKDFPPFPQKLKFREPQREERICLVTTNFQTKSMSSMVSDTSCTFPSGDGIFWKHWIQTKDGQCGSPLVSTRDGFIVGIHSASNFTNTNNYFTSVPKNFMEFLTNQEAQQWVSGWRLNADSVLWGGHKVFMVKPEEPFQPVKEATQL [L190F]: the “area with substrate INLYFQS” value is 0.0751, the “area with substrate MNLYFQS” value stood at 0.0572, the “area with substrate NNLYFQS” value came out at 0.0716 and the “area with substrate TNLYFQS” value came out at 0.0662. The “area with substrate YNLYFQS” value was 0.0654.

Source of the values: the supplement of paper PMC12217912.
